Data taken from PubChem BioAssay AID540267 (National Center for Advancing Translational Sciences (NCATS), 2011).
In all, about 340,000 compounds went through this assay and about 530 (0.16%) were called active. The inconclusive results got no clear call from the source; some entries with a clear call stand among them for comparison. No stated cut-off is given here; in the data, active means activity change below about -80%; inconclusive means between about -30% and that limit; inactive means weaker than that.
On the % scale 0 is the no-effect control and ±100 the full control effect.

Assay: Small Molecules that selectively kill Giardia lamblia: qHTS;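 further: parasites exposed to compound for two days anaerobically before the ATP read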
Conditions: Giardia lamblia trophozoite viability; at 7.66 µM; stronger effect = lower value
Method in brief: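 Luminescence from cellular ATP indicates surviving trophozoites (100 cells/well) following 48 hrs anaerobic compound treatment at 37 deg C; signal develops 15-30 min at room temperature.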
For `COc1c(N2CCN(C(=S)Nc3ccccc3F)C(C)C2)c(F)cc2c(=O)c(C(=O)O)cn(C3CC3)c12` (configuration not stated), the activity change was inconclusive: -41.1% [inhibitor]. With `COc1ccc(/C(N)=N/OC(=O)CCC2CCCC2)cc1OC` the activity change was inconclusive: -31.9% [inhibitor]. With `Brc1c(-c2ccccc2)nc2n1Cc1ccccc1-2` the activity change was inconclusive: -36.4% [inhibitor]. For `CCCNC(=O)c1noc2c1CCc1cc(OC)ccc1-2`, the activity change was inconclusive: -34.1% [inhibitor]. With `CCOc1ccc(NC(=O)COC(=O)C2(C)CC2(Cl)Cl)c([N+](=O)[O-])c1` (configuration not stated) the activity change was inconclusive: -31.1% [inhibitor]. In the case of `CC(=O)NC(Cc1cccc(C)c1)C(=O)NC1CCN(S(=O)(=O)c2ccccc2)CC1` (configuration not stated), the activity change is reported as inactive: 11.7%. With `COc1ccc(CNn2c(-c3ccccc3F)nc3ccccc3c2=O)cc1OC` the activity change was inconclusive: -32.5% [inhibitor]. For `CC1=C(C(=O)Nc2cc(C(=O)N3CCN(c4cccc(C)c4C)CC3)ccc2C)SCCO1`, the activity change was inactive: -13.5%. For `CN(C)c1nc(=NCc2cccs2)ss1`, the activity change was active: -80.8%. For `C/C(=N\NC(=O)c1cc(C)nc2ccccc12)c1ccccn1`, the activity change was inactive: 14.1%. In the case of `Cc1ccn(CCC(=O)N2c3ccccc3CC2C)n1` (configuration not stated), the activity change is reported as inconclusive: -35% [inhibitor]. With `Cc1ccc(NC(=O)CC2C(=O)N(Cc3ccccc3)C(=S)N2NC(=O)c2cccc(F)c2)c(C)c1` (configuration not stated) the activity change was inconclusive: -30.9% [inhibitor]. In the case of `COCCNC(=O)CN1C(=O)CSc2cc(S(=O)(=O)N3CCCCCC3)ccc21`, the activity change is reported as inactive: 34%. For `Cc1cc(-c2ccc(C)c(S(=O)(=O)N3CCN(c4ccc([N+](=O)[O-])cc4)CC3)c2)on1`, the activity change was inconclusive: -49.8% [inhibitor]. With `O=C(Nc1ncc([N+](=O)[O-])s1)c1ccco1` the activity change was active: -89.6%. For `CC1CCc2sc(C(=O)N/N=C/c3ccc(O)cc3)cc2C1` (configuration not stated), the activity change was inconclusive: -36.4% [inhibitor]. For `O=S(=O)(Nc1ccc(Cl)cn1)c1cccs1`, the activity change was inconclusive: -30.7% [inhibitor]. For `Cc1nc(C#N)c(N/N=C/c2cccc(Cl)c2)o1`, the activity change was inconclusive: -37.2% [inhibitor]. In the case of `COc1cccc(/C=C2/SC(=S)N(CCCC(=O)Nc3ccc(O)cc3)C2=O)c1`, the activity change is reported as inconclusive: -34.2% [inhibitor]. In the case of `CC(C)c1ccc(/C=N/NC(=O)c2c(Cl)cnn2C)cc1`, the activity change is reported as inactive: 6.99%. In the case of `Cc1ccc2nc(Cl)c(CNCc3ccccc3)cc2c1`, the activity change is reported as inconclusive: -35.5% [inhibitor]. In the case of `Cc1cnc(NC(=O)C2=C(O)c3ccccc3S(=O)(=O)N2C)s1`, the activity change is reported as inconclusive: -34.4% [inhibitor].
